Among all 150,000 compounds or so, about 540 (0.36%) showed an effect of 50% or more. The list shows a part of the results.

By % Inhibition is commonly meant the change of the read-out against control, counted positive when it falls.

The experiment concerns Plasmodium falciparum. As to the kind of experiment: Primary screen in NF54 nanoGlo assay, in single point, at 2uM, 72h; a lower Z score goes with more inhibition. It counts as functional, Erythrocyte. The note with it: timepoint 72 hour.
For the compound `Cc1nc(C2=C(O)CN(CCc3ccccc3)C2=N)sc1C`, the “% Inhibition” value is -12% and the Z score was determined as 1.91.
For `CC(C)(C)OC1CC(NC(=O)CCc2ccccn2)C1n1cccn1` (stereo unspecified) the same measures were -27% and 2.9.
The corresponding values for `CCOc1ncccc1CNC(=O)[C@@H]1CCCN1C(C)=O` are 3% and -0.58.
The corresponding values for `CCOC(=O)CC1(NC(=O)N2CCN(c3nc4ccccc4n3C)CC2)CCCCC1` are 6% and -1.
Consider `CN1CCCC[C@@H](C(=O)NCCc2ccccn2)C1=O`, for which the “% Inhibition” value is recorded as -10% and the Z score was 1.4.
Take `Cc1ccc(C(=O)NC[C@@H]2CN(C)C(=O)[C@H](C)N2Cc2cccc(C)c2)nc1`: the “% Inhibition” value is given as -10% and the Z score stood at 1.44.
Regarding `COc1ccc(S(=O)(=O)N2CCC(N3CCN(c4ccccc4OC)CC3)CC2)cc1`, the “% Inhibition” value worked out at 0% and the Z score is -0.07.
For `Cc1cn2c(n1)CN(C(=O)c1cnn(CC(C)C)c1C(F)F)CC2` the same measures were -1% and 0.11.
`CN(CCc1ncccn1)C(=O)OCC1CCCCC1`: the “% Inhibition” value was -13% and the Z score was found to be 2.66.
Take `CC(C)Cc1nc(CN2c3ccccc3C(C(N)=O)CC2C)no1` (stereo unspecified): the “% Inhibition” value is reported as -14% and the Z score is recorded as 1.89.
On to `CN(C)[C@@H](CNc1oc(C(C)(C)C)nc1C#N)c1ccco1`, for which the “% Inhibition” value is 4% and the Z score was -0.51.
The corresponding values for `CN1CCN(Cc2cccc3ncccc23)C[C@H]1c1ccccc1` are -7% and 1.15.
For `COc1ccc(CCCN(C)CC(=O)Nc2cc(C)no2)cc1`, the “% Inhibition” value is -10% and the Z score is 1.23.
For `CC(C)c1noc(Cn2ccnc2-c2ccccc2-c2ccco2)n1` the same measures were -2% and 0.19.
The corresponding values for `CCc1noc(C)c1C(=O)NC(C)C1CCCO1` (stereo unspecified) are 6% and -1.27.
For `CCC1CCCCC1OCC(=O)NS(C)(=O)=O` (stereo unspecified) the same measures were 4% and -0.5.
Consider `N#Cc1nccnc1NCCCNc1nccnc1C#N`, for which the “% Inhibition” value is given as -3% and the Z score was determined as 0.38.
Consider `CCc1c(C)sc2c1CCN(C(=O)Nc1ccc(C)c(F)c1)[C@@H]2c1ccccc1`, for which the “% Inhibition” value is recorded as -13% and the Z score is given as 1.27.
As for `COCc1nn2c(c1-c1ccccc1)NC(=O)[C@@H](CC(=O)OC)C2`, the “% Inhibition” value stood at 20% and the Z score is -2.49.
The corresponding values for `O=C(c1ccncc1)N1CC[C@H](OCCCc2ccccc2)C1` are 14% and -2.04.
Turning to `O=S(=O)(C1CC1)N1CC[C@H](c2ncon2)C1`, the “% Inhibition” value turned out to be 6% and the Z score is on record as -1.07.
Regarding `CCN(CC)Cc1cc(-c2nc(C)nn2-c2ccccn2)c(C)o1`, the “% Inhibition” value is recorded as 0% and the Z score turned out to be 0.05.
As to `CCOc1ncccc1CNc1nnc(C2CC2)o1`, the “% Inhibition” value is on record as -7% and the Z score is 0.86.
Take `CNc1cc(C(=O)N(C)[C@@H](C)c2ccon2)ccn1`: the “% Inhibition” value is reported as -7% and the Z score is 1.06.
As for `Cc1nc(C)c(C(=O)N2CCN(C)[C@@]3(CCNC(=O)CC3)C2)s1`, the “% Inhibition” value is given as -15% and the Z score was determined as 2.02.
Turning to `N#Cc1nccn1CC(=O)[C@H]1CCCOC1`, the “% Inhibition” value is on record as 12% and the Z score is -1.57.
Regarding `COC(=O)C1(NCCNC(=O)c2cnsn2)CCC1`, the “% Inhibition” value is recorded as -6% and the Z score stood at 1.24.
The corresponding values for `CC[C@@H](CCO)CNS(=O)(=O)N1CCC(C(C)(C)C)CC1` are -12% and 1.67.
The corresponding values for `O=C(NCc1cc2c(cc1OC(F)F)OCO2)c1ccc(F)cn1` are -4% and 0.35.
As for `Cc1cc2cccc(NC(=O)N3CCC(F)(F)CC3)c2o1`, the “% Inhibition” value is reported as -9% and the Z score came out at 1.75.
For `CC(C)COc1cc(=O)n2c(c1C(=O)N(C)CCc1ccccn1)CCCCC2` the same measures were -2% and 0.32.
Turning to `Cc1cnc2sc(C(=O)Nc3ccccc3)c(C(=O)O)n2c1=O`, the “% Inhibition” value is listed as -3% and the Z score is 0.61.
For `O=C(Nc1ccc2c(c1)OCO2)c1nnc(C(=O)N2CCC[C@H](C(=O)N3CCCCC3)C2)s1` the same measures were -32% and 2.8.
The corresponding values for `Cc1nnc(N2C[C@@H](C(F)(F)F)OC(C)(C)C2)c(C#N)c1C` are -15% and 1.91.
For the compound `C[C@H](O)C1(NC(=O)c2ccnc3cc(Cl)ccc23)CC1`, the “% Inhibition” value is -5% and the Z score turned out to be 0.58.
The corresponding values for `COc1ccc(CN2C[C@H](COc3ccncc3)C3(CCOCC3)C2)cc1C` are -5% and 0.67.
Consider `CN(Cc1ncc[nH]1)C(=O)c1cncc(Cl)c1`, for which the “% Inhibition” value is -9% and the Z score is 1.02.
For `COCCOC(C)C(=O)N1CCC2OCCCC2C1` (stereo unspecified) the same measures were -3% and 0.29.
Regarding `COc1ccccc1CN1Cc2ccccc2O[C@@H](C)C1=O`, the “% Inhibition” value is recorded as -5% and the Z score is on record as 0.61.
For `CC(=O)Nc1cccc(NC(=O)c2cccc(N(C)S(C)(=O)=O)c2C)c1`, the “% Inhibition” value is 0% and the Z score is 0.04.
For `Cc1cnc(NC2CC3CCC2O3)nc1NC1CC2CCC1O2` (stereo unspecified), the “% Inhibition” value turned out to be 7% and the Z score is -1.32.
For `O=C(NC1CNCCC1c1ccc(F)c(F)c1)c1ccc2c(c1)OCO2` (stereo unspecified) the same measures were -11% and 1.41.
Consider `C/C=C/CN(C(=O)CCCN1CCCCC1=O)[C@@H](C)CC`, for which the “% Inhibition” value is listed as -3% and the Z score worked out at 0.61.

Values taken from ChEMBL document CHEMBL4888484, “Replenishing the malaria drug discovery pipeline: Screening and hit evaluation of the MMV Hit Generation Library 1 (HGL1) against asexual blood stage Plasmodium falciparum ,using a nano luciferase reporter read-out” (2022).
